What was measured:
[1] = test system: MDA-MB-231 cells; test: ORIS cell migration (motility) assay; type: cell-based, human; conditions: for reduction in cell motility / biological activity, human chimeric versus murine mAbs: overall comparison, 1 μg/mL treatment
Experimental: Cell motility assays utilized the Platypus Technologies ORIS™ cell migration assay platform, which is generally described at platypustech.com/discoverAssay.html.
Specifically, the filamin-A antibodies of the present disclosure were evaluated in the ORIS™ cell migration assay, which used tri-coated 96 well plates (Platypus #CMATR1.101). Cells were seeded at approximately 50,000 cells/well. Cells were incubated overnight at 37° C. without CO2 in DMEM, in the case of HEK-293 cells, or L-15 containing 10% FBS, in the case of MDA-MB-231 cells. Stoppers covering cell growth chambers were removed with the ORIS™ stopper tool, growth media was removed, and wells were gently washed with 100 microliters of sterile PBS. Stoppers were left in place in reference wells until the staining step to serve as pre-migration controls. After washing, a 100 microliter volume of fresh culture media containing the specific treatment was added to each well. The cells were then allowed to incubate overnight. At the end of the incubation period, cells were fluorescently stained with Calcein AM for 30 minutes. Fluorescence was then measured using a microplate reader with a Detection Mask in place.
FIGS. 1 and 2 depict the relative fluorescence units (RFUs) present in the detection zones for each condition (mean+/−S.D., n=2 wells/condition).
Wells containing the cells existed in three formats: coated with collagen, coated with fibronectin, or a tissue culture (TC) treatment.
Well treatments were as follows: no antibody control, mouse antibody (mAb FLNA 1 mcg/ml), mouse antibody (mAb FLNA 20 mcg/ml), human chimeric antibody (hAb FLNA 1 mcg/ml), human chimeric antibody (hAb FLNA 20 mcg/ml), apicdin (100 nM), cytochalasin B (30 micromolar); see FIG. 1. An increase in the number of RFUs correlates with an increase in cellular motility.

[2] = test system: filamin-A; test: Immunofluorescence assays with MDA-MB-231 breast cancer cell line; type: cell-based, human
Experimental: Characterization of the filamin-A mAbs was performed using immunofluorescence assays with the MDA-MB-231 breast cancer cell line. […] For comparison, the AHO1402 mAb and another commercially available mAb, TI10 (Millipore MAB1680-C), were assayed at the same time.
The primary antibodies utilized in the immunofluorescence assays were as follows: • Anti-Filamin-A, clone TI10 (Millipore, p/n MAB1680-C) • Anti-Filamin-A, clone 209 #13 (Life Technologies, p/n AHO1402) • Anti-Filamin-A, mouse mAb • Anti-Filamin-A, human chimeric mAb • Anti-beta Actin, rabbit polyclonal (Rockland, p/n 600-401-886S)
Two primary methods of Immunofluorescence staining were utilized. The first method comprises single staining or double staining with methanol as a fixative and 0.2% Triton as a permeabilization agent, which is described in Alper et al. 2009. The second method utilizes a double staining technique with 2% paraformaldehyde as a fixative and 0.2% triton as a permeabilization agent.
Primary antibodies were incubated with the fixed and permeabilized cells for 1 hour at room temperature at a concentration of 1.25 mcg/ml. After one or more wash steps, secondary antibodies were incubated with the cells for 1 hour at room temperature. […]

[3] = fibronectin coated wells, 1 μg/mL

B1: human chimeric antibody: human chimeric anti-filamin-A mAb of the disclosure; b310 names B185 and B411 without saying which gave the values (antibody)
heavy: EVKLVESGGGLVQPGGSLKLSCAASGFTFSSYTMSWVRQTPEKRLEWVAYISNGGGSTYYPDTVKGRFTISRDNAKNTLYLQMSSLKSEDTAMYYCASDGLLRPFAYWGQGTLVTVSA[human IgG1 constant region skipped]
light: DIVMTQSHKFMSTSVGDRVSITCKASQDVSIDVAWYQQKPGQSPKLLIYSASHRYTGVPDRFTGSGSGTDFTFTISGVQAEDLAVYFCQQHYSTPLTFGAGTKLELKRTVAAPSVFIFPPSDEQLKSGTASVVCLLNNFYPREAKVQWKVDNALQSGNSQESVTEQDSKDSTYSLSSTLTLSKADYEKHKVYACEVTHQGLSSPVTKSFNRGEC
With B1 the “effect on cell motility” value ([1]; collagen coated wells) was “inhibitory effect on cell motility”, the “effect on cell migration” value ([1]; collagen treated wells, 1 μg/mL) was “reduction in cell migration” and the “difference in inhibiting cell motility, as compared to the murine antibody” value [1, 3] was ~100%. For the same molecule, the “effect on cell motility / cell migration” value [1, 3] was “substantially lower level of cell motility than the murine antibody”, the “effect on cell motility / cell migration” value ([1]; fibronectin coated wells, 1 μg/mL, listed as human chimeric mAbs) was “reduction in cell migration” and the “cell motility (relative fluorescence units in detection zone)” value ([1]; fibronectin coated wells, antibody 1 μg/mL, overnight incubation) was 106.26 RFU. For the same molecule, the “reduction in cell motility / biological activity, human chimeric versus murine mAbs” value ([1]; listed as human chimeric mAb) was “greater reduction in cell motility than the murine mAbs”, the “reduction in cell motility / biological activity, human chimeric versus murine mAbs” value ([1]; listed as human chimeric mAbs) was “stronger biological activity than the murine mAbs” and the immunofluorescence staining pattern ([2]; MDA-MB-231 cells, primary antibody 1.25 mcg/ml) was “punctate staining pattern”. For the same molecule, the immunofluorescence staining pattern ([2]; first method: methanol fixative, 0.2% Triton permeabilization) was “reproduced the punctuate staining pattern”.
